Experimental data from PubChem BioAssay AID1745845 (National Center for Advancing Translational Sciences (NCATS), 2022).
Values joined by “and” are separate entries in the source; they are usually repeats but may differ in a detail not shown here. Equal entries are not always repeated. Among all 360,000 compounds or so, about 2,600 (0.72%) were called active. Inconclusive results, whose numbers are uncertain, are shown with a selection of clear calls. Calls follow the shape of the dose curve; as a rule, active = well fitted inhibition curve with a large enough effect; inconclusive = small, poorly fitted or top-dose-only effect; inactive = no such curve, though single readings can be large or run the other way. Where the call is inconclusive, the potency comes from a doubtful curve fit. Some structures have more than one record in an assay (separate samples or runs), and their calls can disagree.

Test: Primary qHTS for Inhibitors of ATXN expression; also: nearly all actives have a fitted effect of over 55% in size
Conditions: HEK-293 ATXN2-luciferase reporter, luminescence, 24 h; activity change, negative = inhibition: at 57 µM (top of the series)
Outline: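 ATXN2-luciferase reporter cells (luciferase flanked by upstream and downstream ATXN2 gene portions) were treated 24 h at 37 °C with compounds at up to 57 uM. SteadyGlo luminescence gave expression; GF-AFC fluorescence gave viability.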
% is scaled to controls: 0 for no effect and ±100 for the full control effect; potency is read from the fitted curve at half-maximal effect; tags tell the direction and shape of the fitted curve.

Compound | Potency | activity change, negative = inhibition
CCn1c2ccccc2c2cc(NC(=O)COC(=O)c3ccccc3F)ccc21 | inconclusive: 28.2 µM [inhibitor, partial curve] | –
CC(C)(C)c1cc(NC(=O)CCl)n(-c2ccccc2)n1 | inconclusive: 39.8 µM [inhibitor, single point] | –
COc1cccc2c1C(=O)c1c(O)c3c(c(O)c1C2=O)CC(O)(C(C)=O)CC3OC1CC(O)C(O)C(C)O1 (stereo not drawn) | inconclusive: 13.4 µM [inhibitor, partial curve, poor fit] | –
CSc1nn(Cc2ccc(F)cc2)c(N(C(C)=O)C(C)=O)c1S(=O)(=O)c1ccccc1 | inconclusive: 39.8 µM [inhibitor, partial curve, poor fit] | –
Cc1cccc(-c2nn(C(=S)Nc3ccccc3)cc2-c2ccnc3ccccc23)n1 | inconclusive: 1.72 µM [inhibitor, partial curve, poor fit] | –
Cc1ccc(C[n+]2cccc(-c3ccccc3)c2)c(C)c1 | – | inactive: -5.36%
O=[N+]([O-])/C=C/c1cn(Cc2ccccc2)c2ccccc12 | inconclusive: 28.2 µM [inhibitor, single point] | –
CCCN(Cc1cc2ccccc2[nH]c1=O)C(=O)c1cccc([N+](=O)[O-])c1 | – | inactive: -14.7%
COCCNC(=O)C1CCCN(c2ncccn2)C1 (stereo not drawn) | – | inactive: -4.18%
C/C=C/C1=CC(=O)C[C@H](c2ccc(OC)c(OC)c2)C1 | inconclusive: 22.4 µM [inhibitor, partial curve, poor fit] | –
Cc1ccc(C)c(N2CCN(C(=S)Nc3ccc4nc(N5CCN(C)CC5)cc(C)c4c3)CC2)c1 | inconclusive: 17.8 µM [inhibitor, partial curve, poor fit] | –
Cc1ccc(-n2nnc3c(SCC(=O)NCC4CCCO4)ncnc32)cc1 (stereo not drawn) | – | inactive: -22.3%
Cc1ccc(NC(=O)c2ccc3c(c2)NC(=O)c2ccccc2S3)c(Cl)c1 | inconclusive: 28.2 µM [inhibitor, single point] | –
CC(=O)Nc1ccc(OCC(O)Cn2c3ccccc3c3ccccc32)c(C)c1 (stereo not drawn) | inconclusive: 31.6 µM [inhibitor, single point] | –
CCCS(=O)(=O)NC(=O)C1(C)CCN(C(=O)C2(c3ccc(Cl)cc3)CCCC2)C1 (stereo not drawn) | – | inactive: 2.4%
CCN1C(=NCc2ccc(OC)cc2)N[C@@H](c2ccccc2)C(C(=O)OC)=C1C | – | inactive: -4.93%
CCN(CC)C(=S)Nc1c(C)n(C)n(-c2ccccc2)c1=O | – | inactive: -27.4%
Cc1ccc(/C=C/c2nc3ccccc3s2)s1 | inconclusive: 39.8 µM [inhibitor, single point] | –
COc1ccccc1CC(=O)Nc1ccc(-c2noc(COc3ccc(Br)cc3)n2)cc1 | inconclusive: 17.8 µM [inhibitor, partial curve, poor fit] | –
C=CC(=O)Nc1cccc(Nc2nc(N[C@H]3CC[C@H](N(C)C)CC3)nc3c2ncn3C(C)C)c1 | active: 1 µM | –
CN(C)C=Nc1ncc2c3ccccc3n(CCN(C)C)c2c1C#N | inconclusive: 14.1 µM [inhibitor, partial curve, poor fit] | –
O=C(CSc1nc(O)c(-c2ccccc2)c(=O)[nH]1)N1CCOCC1 | – | inactive: -7.33%
C=CC[C@@H](CC(=O)N[C@H](CO)Cc1ccccc1)C(=O)N[C@H](COC(=O)[C@H](CC=C)CC(=O)OC(C)(C)C)Cc1c[nH]c2ccccc12 | inconclusive: 35.5 µM [inhibitor, single point] | –

Compound | Potency | activity change, negative = inhibition
Cc1ccc(NC(=O)CN2c3cccc4cccc(c34)S2(=O)=O)cc1S(=O)(=O)N1CCOCC1 | – | inactive: -13%
C[C@H](CO)N1C[C@H](C)[C@@H](CN(C)Cc2ccccc2)Oc2c(NC(=O)Cc3ccccc3)cccc2C1=O | inconclusive: 28.2 µM [inhibitor, single point] | –
COc1ccccc1NC(=O)N1CCN(c2ccc3nnc(-c4ccc(F)cc4)n3n2)CC1 | active: 17.8 µM | –
COc1ccc(C(=O)Nc2ccc3ncccc3c2)cc1 | active: 20 µM | –
COc1ccccc1-c1cc(C(=O)Nc2cc(C)n(Cc3ccc(Cl)cc3)n2)no1 | inconclusive: 35.5 µM [inhibitor, single point] | –
Cc1ccc(Cl)cc1NC1=C/C(=N\S(=O)(=O)c2cccs2)c2ccccc2C1=O | active: 8.91 µM and active: 2.82 µM | –
O=C(On1c(-c2ccccc2)nc2ccccc2c1=O)c1ccco1 | inconclusive: 39.8 µM [inhibitor, single point] | –
Cc1ccccc1NC(=O)Cn1nnc(S(=O)(=O)c2ccc(C(C)(C)C)cc2)c1N | inconclusive: 28.2 µM [inhibitor, partial curve, poor fit] | –
COc1ccc(S(=O)(=O)N(CC(=O)NC(C)c2ccccc2)c2ccc(C)cc2)cc1OC (stereo not drawn) | inconclusive: 28.2 µM [inhibitor, single point] | –
COc1ccc(C2CC(c3cccc(F)c3)=NN2c2ccc(S(N)(=O)=O)cc2)cc1 (stereo not drawn) | inconclusive: 35.5 µM [inhibitor, single point] | –
CC(C)c1ccc(C2CC(=O)Nc3cc4c(cc32)OCCO4)cc1 (stereo not drawn) | inconclusive: 31.6 µM [inhibitor, single point] | –
Cn1c(=O)c2c(ncn2CCOc2ccc(Br)cc2)n(C)c1=O | inconclusive: 28.2 µM [inhibitor, single point] | –
CSc1ncnc2c1ncn2CC(=O)C1CCC2C3CCC4=CC(=O)CCC4(C)C3CCC12C (stereo not drawn) | active: 22.4 µM | –
CCC(/C=C1\Sc2ccc(OC)cc2N1CC)=C\c1sc2ccc(OC)cc2[n+]1CCCS(=O)(=O)[O-] | inconclusive: 12.6 µM [inhibitor, partial curve, poor fit] | –
C[C@H]1C(=O)N(c2ccccc2)[C@@H]1c1ccccc1 | – | inactive: 7.32%
O=C1[C@@H]2Cc3c([nH]c4ccccc34)C(c3cccc(Br)c3)N2C(=O)CN1C1CCN(Cc2ccccc2)CC1 (stereo partly drawn) | inconclusive: 37.7 µM [inhibitor, single point] | –
CN(c1ccccc1)S(=O)(=O)c1ccc(C(=O)Nc2nnc(C3CC3)s2)cc1 | – | inactive: 27.4%
Cc1nn(-c2ccccc2)c(OC(=O)c2ccccc2)c1S(=O)(=O)c1ccccc1 | – | inactive: -2.71%
COc1c(Cl)cc(C(=O)Nc2cc(-c3nc4ccccc4[nH]3)ccc2C)cc1Cl | inconclusive: 10 µM [inhibitor, partial curve] | –
O=C1NC(Cc2ccc(O)cc2)c2nc3cc(F)c(F)cc3c(=O)n2-c2ncccc21 (stereo not drawn) | inconclusive: 25.1 µM [inhibitor, partial curve, poor fit] | –
CCOc1ccccc1N1CCN(C(=O)C2c3ccccc3Oc3ccccc32)CC1 | – | inactive: -21.7%
CCC(=NNC(=O)c1ccc2c(c1)nc(C)n2CC)c1cc(F)ccc1O | inconclusive: 33.6 µM [inhibitor, partial curve, poor fit] | –
COc1ccc(C(=O)NCC(c2cccnc2)N2CCN(c3ccccc3)CC2)cc1OC (stereo not drawn) | – | inactive: -9.5%

Compound | Potency | activity change, negative = inhibition
O=C(N/N=C/c1ccco1)c1cc(-c2ccccc2)nc2ccccc12 | – | inactive: 5.21%
N[C@@H](Cc1ccccc1)c1nnc(SC/C=C/c2ccccc2)o1 | – | inactive: -24.3%
CCc1cc(=O)oc2c3c(cc(OCC(=O)NCc4ccco4)c12)OC(C)(C)CC3 | inconclusive: 20 µM [inhibitor, partial curve, poor fit] | –
O=C(COc1ccccc1F)NCC(c1ccco1)N1CCCC1 (stereo not drawn) | – | inactive: -28.3%
CCCCC[C@H](O)C=C[C@H]1[C@H](O)CC(=O)[C@H]1CCCCCCC(=O)O | inconclusive: 38.5 µM [inhibitor, single point] | –
CCOC(=O)c1sc(=S)n(-c2ccccc2OC)c1N | – | inactive: 1.74%
Cc1ccc(Cl)cc1-n1ncc2c(NCCc3ccccc3)ncnc21 | inconclusive: 39.8 µM [inhibitor, single point] | –
CCN1CCN(C(=S)c2ccc(-c3ccccc3)cc2)CC1 | inconclusive: 6.31 µM [inhibitor, partial curve] | –
Cc1cccc(-c2nc(SCc3cc(=O)c4c(C)cc(C)cc4[nH]3)n[nH]2)c1 | inconclusive: 39.8 µM [inhibitor, single point] | –
Cc1c(C(=O)N/N=C/c2ccccc2)[nH]c2c([N+](=O)[O-])cccc12 | inconclusive: 1.26 µM [inhibitor, full curve] | –
COc1cc(CNCCc2c[nH]c3ccccc23)ccc1OCc1ccccc1F | inconclusive: 39.8 µM [inhibitor, single point] | –
CCCOc1ccc(CNC(=S)N/N=C/c2ccc([N+](=O)[O-])cc2)cc1 | – | inactive: -19.8%
CCOc1cc(-c2cc(-c3ccc(C)cc3)nc(N)c2C#N)ccc1O | inconclusive: 39.8 µM [inhibitor, partial curve, poor fit] | –
O=C(O)CSCC(=O)N1CCCN(c2ccc(C(F)(F)F)cn2)CC1 | – | inactive: 6.17%
O=C(Nc1ccc(NC(=O)c2ccco2)cc1)c1ccc2c(c1)OCO2 | inconclusive: 39.8 µM [inhibitor, single point] | –
C/C(Cn1cnc([N+](=O)[O-])n1)=N\NC(=O)c1ccccc1 | – | inactive: 12.1%
CCN1CCN(Cc2ccc(NC(=O)c3ccc(C)c(NC(=O)c4c[nH]c5cc(C(F)(F)F)ccc5c4=O)c3)cc2C(F)(F)F)CC1 | inconclusive: 22.4 µM [inhibitor, single point] and active: 3.98 µM | –
Oc1c(CN2CCOCC2)cc(COCc2ccccc2)c2cccnc12 | active: 5.62 µM | –
CCn1c(COc2ccccc2C)nc2ccccc21 | – | inactive: 33.3%
COC1=CC(=O)C=C(OC)C1=O | active: 5.62 µM | –
Cc1nn2cc(-c3ccc(OC(C)C)cc3)nc2s1 | – | inactive: 0%
Cc1ccsc1C(=O)OCC(=O)Nc1cccc(S(=O)(=O)N2CCOCC2)c1 | inconclusive: 3.36 µM [inhibitor, single point] | –
